Laboratory results as given in the supplement of paper PMC12067230.
This is a noisy data set.

Assay: amyloid nucleation score relative to library mode (yeast Sup35 reporter selection) (log enrichment difference); higher = more amyloid nucleation; sequences are the first 22 residues of the Bri2 peptide extended by up to 12 random residues
Settings: random library (experiment): 2;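 active = nucleation score significantly above 0 at FDR 0.05; inactive = not significantly above 0 or absent from output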
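Also: [psi-pin-] Saccharomyces cerevisiae expressing SupN fusions, induced by 100 µM Cu2SO4, selected 7 d at 30 °C without adenine and uracil, scored by deep sequencing of output versus input.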

Question: With EASNCFAIRHFENKFAVETLICTKLVALISDLNW as the sequence, how does the amyloid nucleation score read?
Answer: The amyloid nucleation score was “inactive”.

Question: With EASNCFAIRHFENKFAVETLICTLCHMGPTGCGR as the sequence, how does the amyloid nucleation score read?
Answer: The amyloid nucleation score was 9.1.

Question: Which amyloid nucleation score does the source give for EASNCFAIRHFENKFAVETLICTLD here?
Answer: Its amyloid nucleation score is “inactive”.

Question: For EASNCFAIRHFENKFAVETLICTLEDFCFDIMWW, which amyloid nucleation score is on record?
Answer: Its amyloid nucleation score is “inactive”.

Question: Which amyloid nucleation score does the source give for EASNCFAIRHFENKFAVETLICTLEWFAEASGCG here?
Answer: The amyloid nucleation score was “inactive”.

Question: With EASNCFAIRHFENKFAVETLICTLFDPCHLRFSA as the sequence, how does the amyloid nucleation score read?
Answer: Its amyloid nucleation score is 2.09.

Question: For EASNCFAIRHFENKFAVETLICTLFRLASFSHFH, which amyloid nucleation score is on record?
Answer: The amyloid nucleation score was “inactive”.

Question: With EASNCFAIRHFENKFAVETLICTLGYYSGRFSVL as the sequence, how does the amyloid nucleation score read?
Answer: The amyloid nucleation score was 1.53.

Question: For EASNCFAIRHFENKFAVETLICTLMMSLFGFIRA, which amyloid nucleation score is on record?
Answer: Its amyloid nucleation score is “inactive”.

Question: For EASNCFAIRHFENKFAVETLICTLP, which amyloid nucleation score is on record?
Answer: The amyloid nucleation score was “inactive”.

Question: For EASNCFAIRHFENKFAVETLICTLPYSLIALSYV, which amyloid nucleation score is on record?
Answer: The amyloid nucleation score was “inactive”.

Question: Which amyloid nucleation score does the source give for EASNCFAIRHFENKFAVETLICTLRLFSVYMVVV here?
Answer: Its amyloid nucleation score is “inactive”.

Question: For EASNCFAIRHFENKFAVETLICTLRSVTNNSFCV, which amyloid nucleation score is on record?
Answer: Its amyloid nucleation score is “inactive”.

Question: Which amyloid nucleation score does the source give for EASNCFAIRHFENKFAVETLICTLV here?
Answer: The amyloid nucleation score was 5.9.

Question: Which amyloid nucleation score does the source give for EASNCFAIRHFENKFAVETLICTLWTGACRSVGG here?
Answer: Its amyloid nucleation score is 3.71.

Question: With EASNCFAIRHFENKFAVETLICTLWWNYAYAL as the sequence, how does the amyloid nucleation score read?
Answer: Its amyloid nucleation score is “inactive”.

Question: For EASNCFAIRHFENKFAVETLICTLYNFHKRLFNR, which amyloid nucleation score is on record?
Answer: The amyloid nucleation score was 0.478.

Question: With EASNCFAIRHFENKFAVETLICTMAVLFGKEGAG as the sequence, how does the amyloid nucleation score read?
Answer: Its amyloid nucleation score is 4.47.

Question: With EASNCFAIRHFENKFAVETLICTMCSPPI as the sequence, how does the amyloid nucleation score read?
Answer: Its amyloid nucleation score is 5.51.

Question: With EASNCFAIRHFENKFAVETLICTMDFH as the sequence, how does the amyloid nucleation score read?
Answer: The amyloid nucleation score was 6.52.

Question: Which amyloid nucleation score does the source give for EASNCFAIRHFENKFAVETLICTMDKYSGSLDIR here?
Answer: Its amyloid nucleation score is “inactive”.

Question: Which amyloid nucleation score does the source give for EASNCFAIRHFENKFAVETLICTMDSPSVIVVLH here?
Answer: Its amyloid nucleation score is “inactive”.

Question: With EASNCFAIRHFENKFAVETLICTMFGNWYGMRLV as the sequence, how does the amyloid nucleation score read?
Answer: Its amyloid nucleation score is “inactive”.

Question: Which amyloid nucleation score does the source give for EASNCFAIRHFENKFAVETLICTMFTL here?
Answer: Its amyloid nucleation score is 7.57.

Question: For EASNCFAIRHFENKFAVETLICTMGLPPSSCRSV, which amyloid nucleation score is on record?
Answer: The amyloid nucleation score was 0.66.

Question: With EASNCFAIRHFENKFAVETLICTMGWT as the sequence, how does the amyloid nucleation score read?
Answer: Its amyloid nucleation score is “inactive”.

Same assay, conditions: random library (experiment): 3

Question: Which amyloid nucleation score does the source give for EASNCFAIRHFENKFAVETLICTIQVPLSLSGMF here?
Answer: The amyloid nucleation score was 7.22.

Question: With EASNCFAIRHFENKFAVETLICTIVAEWSTNLGY as the sequence, how does the amyloid nucleation score read?
Answer: The amyloid nucleation score was 1.76.

Question: With EASNCFAIRHFENKFAVETLICTIVFCIKLCSVW as the sequence, how does the amyloid nucleation score read?
Answer: Its amyloid nucleation score is “inactive”.

Question: For EASNCFAIRHFENKFAVETLICTKRERGKGSRGT, which amyloid nucleation score is on record?
Answer: Its amyloid nucleation score is 6.56.

Question: For EASNCFAIRHFENKFAVETLICTKRWCRLLVRSC, which amyloid nucleation score is on record?
Answer: The amyloid nucleation score was “inactive”.

Question: Which amyloid nucleation score does the source give for EASNCFAIRHFENKFAVETLICTKSGGMFETVI here?
Answer: The amyloid nucleation score was “inactive”.

Question: Which amyloid nucleation score does the source give for EASNCFAIRHFENKFAVETLICTKSLFLCRNAAF here?
Answer: The amyloid nucleation score was “inactive”.

Question: For EASNCFAIRHFENKFAVETLICTLASPEDMGLAD, which amyloid nucleation score is on record?
Answer: The amyloid nucleation score was “inactive”.

Question: Which amyloid nucleation score does the source give for EASNCFAIRHFENKFAVETLICTLDVISRILMTS here?
Answer: The amyloid nucleation score was “inactive”.

Question: For EASNCFAIRHFENKFAVETLICTLFL, which amyloid nucleation score is on record?
Answer: The amyloid nucleation score was 8.66.

Question: For EASNCFAIRHFENKFAVETLICTLHFGYFGDMPG, which amyloid nucleation score is on record?
Answer: The amyloid nucleation score was “inactive”.

Question: For EASNCFAIRHFENKFAVETLICTLHMI, which amyloid nucleation score is on record?
Answer: The amyloid nucleation score was “inactive”.

Question: With EASNCFAIRHFENKFAVETLICTLIDGGSVEGWS as the sequence, how does the amyloid nucleation score read?
Answer: The amyloid nucleation score was “inactive”.

Question: Which amyloid nucleation score does the source give for EASNCFAIRHFENKFAVETLICTLLEHHGEQFLA here?
Answer: The amyloid nucleation score was “inactive”.

Question: For EASNCFAIRHFENKFAVETLICTLLMKAEMCVCA, which amyloid nucleation score is on record?
Answer: Its amyloid nucleation score is “inactive”.

Question: For EASNCFAIRHFENKFAVETLICTLNCRLWSCVGV, which amyloid nucleation score is on record?
Answer: The amyloid nucleation score was 5.75.

Question: With EASNCFAIRHFENKFAVETLICTLPAMWFGLVPW as the sequence, how does the amyloid nucleation score read?
Answer: Its amyloid nucleation score is “inactive”.

Question: For EASNCFAIRHFENKFAVETLICTLR, which amyloid nucleation score is on record?
Answer: The amyloid nucleation score was “inactive”.

Question: Which amyloid nucleation score does the source give for EASNCFAIRHFENKFAVETLICTLSGTFRIWWDG here?
Answer: The amyloid nucleation score was “inactive”.

Question: With EASNCFAIRHFENKFAVETLICTLSLICPCLVFG as the sequence, how does the amyloid nucleation score read?
Answer: Its amyloid nucleation score is 5.07.

Question: Which amyloid nucleation score does the source give for EASNCFAIRHFENKFAVETLICTLSVSTPRCRRV here?
Answer: Its amyloid nucleation score is “inactive”.

Question: Which amyloid nucleation score does the source give for EASNCFAIRHFENKFAVETLICTLTEA here?
Answer: Its amyloid nucleation score is “inactive”.

Question: With EASNCFAIRHFENKFAVETLICTLTFRRGIDRFR as the sequence, how does the amyloid nucleation score read?
Answer: Its amyloid nucleation score is “inactive”.

Question: Which amyloid nucleation score does the source give for EASNCFAIRHFENKFAVETLICTLTMVKHRYEWS here?
Answer: The amyloid nucleation score was “inactive”.

Question: Which amyloid nucleation score does the source give for EASNCFAIRHFENKFAVETLICTLVLI here?
Answer: Its amyloid nucleation score is 2.25.

Question: Which amyloid nucleation score does the source give for EASNCFAIRHFENKFAVETLICTLVMPWHWNETE here?
Answer: Its amyloid nucleation score is 8.2.

Question: With EASNCFAIRHFENKFAVETLICTMALSKQSYDPI as the sequence, how does the amyloid nucleation score read?
Answer: Its amyloid nucleation score is 3.09.

Question: For EASNCFAIRHFENKFAVETLICTMILRSGSLHRT, which amyloid nucleation score is on record?
Answer: Its amyloid nucleation score is “inactive”.

Question: With EASNCFAIRHFENKFAVETLICTMKESDDSQHQR as the sequence, how does the amyloid nucleation score read?
Answer: Its amyloid nucleation score is “inactive”.

Question: For EASNCFAIRHFENKFAVETLICTMLRSERTSPRW, which amyloid nucleation score is on record?
Answer: Its amyloid nucleation score is 3.86.

Question: Which amyloid nucleation score does the source give for EASNCFAIRHFENKFAVETLICTMPDNLRLDLLH here?
Answer: Its amyloid nucleation score is 3.24.

Question: Which amyloid nucleation score does the source give for EASNCFAIRHFENKFAVETLICTMPLTARVWSG here?
Answer: Its amyloid nucleation score is 0.739.

Question: With EASNCFAIRHFENKFAVETLICTMPQREQSSVEN as the sequence, how does the amyloid nucleation score read?
Answer: Its amyloid nucleation score is “inactive”.

Question: For EASNCFAIRHFENKFAVETLICTMSCYGGMSN, which amyloid nucleation score is on record?
Answer: The amyloid nucleation score was 3.81.
